From the RNAGym collection of RNA variant scans (doi:10.1073/pnas.2313332121)
Variants at the background level are over-represented here.

B1: TPR 5TU (parent)
chain: GGAUCUUCUCGAUCUAACAAAAAAGACAAAUCUGCCACAAAGCUUGAGAGCAUCUUCGGAUGCAGAGGCGGCAGCCUUCGGUGGCGCGAUAGCGCCAACGUUCUCAACUAUGACACGCAAAACGCGUGCUCCGUUGAAUGGAGUUUAUCAUG

Variants of: B1
Assay: polymerase ribozyme fitness, log enrichment relative to wild type (log ratio); higher = more active; in vitro selection for triplet polymerase activity
Procedure, shortened: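 A single round of triplicate in vitro selection, including frozen incubation at −7 °C, was applied to PCR-built, transcribed mutant libraries of each subunit of a heterodimeric triplet polymerase ribozyme. Illumina sequencing of input and output libraries retained genotypes with ≥10 input reads and ≥1 read per output. Fitness is the base-2 logarithm of genotype enrichment divided by wild-type enrichment, from inverse-variance-weighted replicate averages.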

Variant	polymerase ribozyme fitness (log ratio)
U4A U44A U61A G92C	≤ -4.2
U4A U55A A64C	≤ -4.2
U4A U56A A66G C85A U144C	≤ -4.2
U4A U56A G59A C87G U90G A137U G143C U146C	≤ -4.2
U4A U61A A64U G65A C103A G141A U145A	≤ -4.2
U4C A12C A24U C27G A28G U44A G88A C116U G143A	≤ -4.2
U4C A12G C14U A40G G50A G84U U145C	≤ -4.2
U4C A16U C57A C99U U130G U148G	≤ -4.2
U4C A16U G48A A52C A66U C85U G88A A98U A137U	≤ -4.2
U4C A17C G42A G50C U53A G62A U90G A120U	≤ -4.2
U4C A17G U55A A66G G88C U127G	≤ -4.2
U4C A17U C85A C96U A137U U144A	≤ -4.2
U4C A17U G50U G58A G92C C99U G117U	≤ -4.2
U4C A19G G34C A52C U56A C87A G133C	≤ -4.2
U4C A20U C27G C85A A110G U135C G136U G143C	≤ -4.2
U4C A21G G42A G48C G50C A64U G84C U102G U127A	≤ -4.2
U4C A21G G68A C85G	≤ -4.2
U4C A22C A47C G62A U77G U109G	≤ -4.2
U4C A22C C32A A41U G126A	≤ -4.2
U4C A22C C32G G86C A91C C95G	≤ -4.2
U4C A23G A37U G50C C105U	≤ -4.2
U4C A24U G81A C85U A89C	-0.962
U4C A26U C69U	-2.9
U4C A28G C38U C69U C87G G133A	≤ -4.2

Variant	polymerase ribozyme fitness (log ratio)
U4C A29C C43U G50C C95A A113G A121C	≤ -4.2
U4C A29U C36G C76A G86A	≤ -4.2
U4C A30C C35U A97C C105G U127G U139C A142G	≤ -4.2
U4C A37C A40U A49G C79G C85A U127A C149A	≤ -4.2
U4C A39G U82C A107U	≤ -4.2
U4C A40C G83C G112C	≤ -4.2
U4C A40G C43U C63A C87A C114A G124U	≤ -4.2
U4C A49C A52C C99A C132U G136U G140U	≤ -4.2
U4C A49G C51A C87A C132U A150C	≤ -4.2
U4C A52U U82G C96A	-3.56
U4C A60U G74A C93U A106U A107U A150C	≤ -4.2
U4C A66U U82A G88C C96U U102A	≤ -4.2
U4C C5A A24U A41G G46C C85U C96G	-3.3
U4C C5G U55A C75A G88C G133U	-4.17
U4C C5U A23C A47C C79A C85G U90C G117U G152U	≤ -4.2
U4C C5U A39U G50C G67A A73G C85A G94A	≤ -4.2
U4C C5U U33A U44C A47G A60G G94U	≤ -4.2
U4C C8A U15G A19U U55G C85A A137G	≤ -4.2
U4C C8G G88C	≤ -4.2
U4C C8U A23G A60U G68A C79A C116U C125G	≤ -4.2
U4C C10A A12U U53A G88C C96A	≤ -4.2
U4C C10U A16C U90A A97U C116U	≤ -4.2
U4C C10U A24U G62U C93G	≤ -4.2
U4C C14A A17U G58U A66C G68C G126A U145G	≤ -4.2

Variant	polymerase ribozyme fitness (log ratio)
U4C C14G A17G A91G C93A C96G C116G	≤ -4.2
U4C C14U G42A G84A C105G	≤ -4.2
U4C C14U U15A A41C C93A C95U	≤ -4.2
U4C C18A C54A U55G C85G	≤ -4.2
U4C C18G A40C A49G U135G	≤ -4.2
U4C C18G A41C C75U C93G A120G	≤ -4.2
U4C C18U A41C A60C C79U C87U A98C U101C G133U C149U	≤ -4.2
U4C C32U C93U A115U	≤ -4.2
U4C C32U U44A U55A A60U C75A A97G G133A G136A	≤ -4.2
U4C C35G A37G A39C G48A U61G U82C G84U	≤ -4.2
U4C C35G A60C C108G	≤ -4.2
U4C C35U U55G C76G G133C U135G	≤ -4.2
U4C C38G G59A U61A U148C	≤ -4.2
U4C C38U U55G C87A A106G	≤ -4.2
U4C C43U G92U A121G G143C	≤ -4.2
U4C C54U C75U C96A U139A	≤ -4.2
U4C C54U U55A C76U C85A C95G U127A U151C	≤ -4.2
U4C C57A C87A U146A A150C	≤ -4.2
U4C C69A C76A U109C	≤ -4.2
U4C C76A C93U G141C	≤ -4.2
U4C C85A	-1.34
U4C C87G A107G	≤ -4.2
U4C C93A U151G	≤ -4.2
U4C G11C G100A A120C	≤ -4.2

Variant	polymerase ribozyme fitness (log ratio)
U4C G25U U61G G86U C93U G133C	≤ -4.2
U4C G42A G92A A120G G126C G141A	≤ -4.2
U4C G50A G68U G86A	≤ -4.2
U4C G50C U56A G74A C87A G88U C116U	≤ -4.2
U4C G58U C75A A91U U104G U144A C149U	≤ -4.2
U4C G59A C63A A98U U148C	≤ -4.2
U4C G74A	-3.29
U4C G86A	-0.918
U4C G94C C116G	-0.818
U4C U6A A40U C95U G143U	≤ -4.2
U4C U6G G42C A60G A66C C85U A107U C114U C125G	≤ -4.2
U4C U6G U55A C93G C103G A150U	≤ -4.2
U4C U7C A17U A41C G68C U78A C99A C103G	≤ -4.2
U4C U7G A19U A20G G34U C96U G100A A110G G140C	≤ -4.2
U4C U7G C27U U31A G68U G88U	≤ -4.2
U4C U7G C87A G100A U101A	≤ -4.2
U4C U9A A16U C85U U101G A122C A150G	≤ -4.2
U4C U9A A17G A47C A52C G68C A73U G80A C85G G94A U102G A106G A107C U109G U145A	≤ -4.2
U4C U9A C43U A66C G86A C114G A119U A137U A150G	≤ -4.2
U4C U15A G68U C93G	≤ -4.2
U4C U33G C36U A40C C51U C93U U134A A147C	≤ -4.2
U4C U44C A60U U77G G124U A150C	≤ -4.2
U4C U53A A66G C69U G83U G94C	≤ -4.2
U4C U53G G92U U104A A106C	≤ -4.2

Variant	polymerase ribozyme fitness (log ratio)
U4C U55A C57G C79G G88C U134A	≤ -4.2
U4C U56A G84A A110U A119C A150C G152A	≤ -4.2
U4G A12U C32G G67C C72U C93G	≤ -4.2
U4G A16C A28U C38U U55A C75G U111C A122U A142C	≤ -4.2
U4G A16U C38U G59U G67C C108U A121U C132G	≤ -4.2
U4G A16U U90C A91G G124A U144A	≤ -4.2
U4G A19G A28C G80C U82C U101A C105G A106U G126A G140C	≤ -4.2
U4G A19G A73C C87U A138U	≤ -4.2
U4G A19G G59A C105U A107C	≤ -4.2
U4G A20C C43U U55A G59U A60G C87A A121G G141C	≤ -4.2
U4G A20C G48A G62U C85G C96U U127C	≤ -4.2
U4G A20G C35U G94C A97G C118A A137G A142U	-4.11
U4G A21C A28C G81U C95U G136A	≤ -4.2
U4G A21C C96G U139G G140U C149A	≤ -4.2
U4G A21G A29G A60U A66G C93A C116A U146C	≤ -4.2
U4G A21G A47C A52G G88C A98U A107C G136C U144C	≤ -4.2
U4G A21U U31A G84U A115C	-3.65
U4G A22C A24U A26G U78G G81C C87G	≤ -4.2
U4G A22U G50C C57U C76G U82C A107G A115C A137U	≤ -4.2
U4G A22U G50C G86U C132G	≤ -4.2
U4G A23C C79A G92C G100A	≤ -4.2
U4G A23U A29U C35U U77A C99A C125G U134G	≤ -4.2
U4G A23U C75U A97G	≤ -4.2
U4G A24C C27U C43U G88U U130G	≤ -4.2

Variant	polymerase ribozyme fitness (log ratio)
U4G A24C G84U G86U C108U A122G U151C	≤ -4.2
U4G A24G A47C C51A C54A C76G U82G G86U A115G	≤ -4.2
U4G A24G G50A G62U C75A G92U G117A G136C	≤ -4.2
U4G A24U A39C C103G A121G	≤ -4.2
U4G A24U G62U C87U A89U	-3.44
U4G A26U G50U C87A G141A A150U	≤ -4.2
U4G A28C A29C C87U C116U G141A	≤ -4.2
U4G A30C U78C C95G A119C	≤ -4.2
U4G A30U C57G G58A C93U	≤ -4.2
U4G A37G U44G C72U C93G A97G A98C G141U	≤ -4.2
U4G A39U A40U A91U C95G	≤ -4.2
U4G A39U C85A U134G U151A	≤ -4.2
U4G A39U G50C G58A C87A G100A	≤ -4.2
U4G A40C A49G C96A	-3.02
U4G A40G C72G C87U U104G C118U A122G	≤ -4.2
U4G A41C A137C	≤ -4.2
U4G A49G C75A	≤ -4.2
U4G A49G C87G	≤ -4.2
U4G A49U C51G A120U A121G	≤ -4.2
U4G A49U C57U U82G A91U	≤ -4.2
U4G A52G G68C A106G A142C U148G G152U	≤ -4.2
U4G A64U C93G U148A	≤ -4.2
U4G A97U	0.0622
U4G C5A A17C U77C C85U A121C U144A A150C	≤ -4.2

Variant	polymerase ribozyme fitness (log ratio)
U4G C5G A28C G46U C108G C129G	≤ -4.2
U4G C8A U33G C38U C57A A73C C95G A119C	≤ -4.2
U4G C8G C14G A24G U45A C85A G86U G140A U145A U146C	≤ -4.2
U4G C8U U56A G84A	-1.05
U4G C10A C35U G83U G88C A120C G143A	-4.17
U4G C10G C14A A23U C36G U55A C87A U90G G94C C116A A138G U145A	≤ -4.2
U4G C10U G83U A98U C105U	-0.982
U4G C14A A26C C27U C99U U104G	≤ -4.2
U4G C14G C76G	≤ -4.2
U4G C14G G48U G62A C76G A119U A122U C132G U144G	≤ -4.2
U4G C18G A40G G42C C57U G59A C93G	≤ -4.2
U4G C32G C87U	≤ -4.2
U4G C35U C69A C87A C95A C103A C118G C131A	≤ -4.2
U4G C36U C87A A120U A150C	≤ -4.2
U4G C36U G48U G92U A120G G141C U144C	≤ -4.2
U4G C38U C93G	-2.52
U4G C54G C95G	-3.63
U4G C75G A91U G92A U101G U146C	≤ -4.2
U4G C75G C85A A107U U144C	≤ -4.2
U4G C76U G83U A98C A138C U139G	≤ -4.2
U4G C85A C87G A89G C95G	≤ -4.2
U4G C85U	-0.873
U4G C131G	≤ -4.2
